# Measurements as given in PubChem BioAssay AID485294 (National Center for Advancing Translational Sciences (NCATS), 2010).
# Screen size: about 370,000 compounds; about 150 (0.041%) were called active. Inconclusive means that the source gave no clear call. Such entries were picked first, then a sample of the others. Calls follow the shape of the dose curve; as a rule, active = well fitted inhibition curve with a large enough effect; inconclusive = small, poorly fitted or top-dose-only effect; inactive = flat fitted curve, though single readings scatter. No potency is given beside an inconclusive call; the fits are too rough.
# Target: Beta-lactamase (Escherichia coli (strain K12)) (UniProt P00811)
# Assay: qHTS Inhibitors of AmpC Beta-Lactamase (assay with detergent); also: nearly all actives have a fitted effect of over 25% in size;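 as to activity change, negative = inhibition: 0% = no-compound wells and -100% = no-enzyme wells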
# Details: AmpC hydrolysis of nitrocefin, absorbance 480 nm, 0.01% Triton; activity change, negative = inhibition: at 114 µM (top of the series)
# Summary of the method: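 20 mM phosphate pH 7.0 + 0.01% (detergent screen) or 0.0001% Triton X-100; 5.3 nM AmpC reagent; cpd preinc 15 min RT; nitrocefin (800 uM stock) to start; A480 q20 s × 4 min; Activity was normalised to no-enzyme and no-compound control wells.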
# Potency is read from the fitted curve at half-maximal effect; tags tell the direction and shape of the fitted curve.
# UniProt P00811, sequence (P00811 whole entry, looked up): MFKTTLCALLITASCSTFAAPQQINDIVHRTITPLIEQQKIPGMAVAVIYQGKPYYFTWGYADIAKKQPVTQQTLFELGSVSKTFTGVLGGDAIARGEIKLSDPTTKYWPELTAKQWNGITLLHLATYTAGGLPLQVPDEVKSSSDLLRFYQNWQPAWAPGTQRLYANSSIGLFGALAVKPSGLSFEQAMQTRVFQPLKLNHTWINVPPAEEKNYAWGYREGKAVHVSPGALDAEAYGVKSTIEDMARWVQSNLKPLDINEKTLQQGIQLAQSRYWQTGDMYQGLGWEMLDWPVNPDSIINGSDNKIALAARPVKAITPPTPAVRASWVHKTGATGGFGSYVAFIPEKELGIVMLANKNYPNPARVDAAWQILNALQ
Structure (SMILES),Potency,"activity change, negative = inhibition"
O=[N+]([O-])c1cc(-c2ccc(C(=S)N3CCOCC3)o2)ccc1Cl,"inconclusive [inhibitor, full curve]",–
CCc1cc2c(=O)c(-c3nc4ccccc4[nH]3)coc2c(CN2CCCCC2)c1O,–,inactive: -2.31%
COCCCNC(=O)CN1C(=O)CSc2ncccc21,"inconclusive [inhibitor, full curve, poor fit]",–
CC(=O)Nc1ccc(C(=O)CSc2nc3ccccc3n2CC(=O)N2CCCC2)cc1,"inconclusive [inhibitor, full curve, poor fit]",–
Cc1cc(C)c(NC(=S)N(CCN(C)C)Cc2cccs2)c(C)c1,–,inactive: -0.0566%
O=C(CSc1nnnn1Cc1ccccc1)NCCc1ccccc1,–,inactive: -2.62%
O=C1C=CC(O)(c2cc(=O)c3c(O)cc(O)cc3o2)C=C1,"inconclusive [inhibitor, full curve, poor fit]",–
CCc1c(C)n([O-])c2c([n+]1=O)CCC2,"inconclusive [inhibitor, full curve]",–
COCCN(C(=O)COC(=O)C1CC1C)c1c(N)n(Cc2ccccc2)c(=O)[nH]c1=O (stereo not given),"inconclusive [inhibitor, full curve, poor fit]",–
c1ccc(CSc2nnc(-c3c[nH]c4ccccc34)o2)cc1,–,inactive: -11.5%
COc1ccc(/C=C2\OC(=S)N(C)C2=O)cc1,–,inactive: 4.51%
Cc1oc(C(C)(C)C)cc1C(=O)N1CCN(C(c2ccccc2)c2ccccc2)CC1,–,inactive: -7.76%
Cn1c(-c2ccc(CN3CCCCC3)o2)nc2ccccc21,"inconclusive [inhibitor, full curve]",–
CNc1ccc(Br)cc(C(=O)/C=C/c2ccc3c(c2)OCO3)c1=O,–,inactive: 0.227%
COc1cc(OC)cc(C(=O)NC(=S)Nc2ccc(N3CCCC3)cc2)c1,"inconclusive [inhibitor, full curve, poor fit]",–
Cc1ccnc(NC(=O)CNC(=O)c2ccc(C)s2)c1,"inconclusive [inhibitor, single point]",–
O=C1NC(c2cccc(Cl)c2)Oc2ccccc21 (stereo not given),"inconclusive [inhibitor, single point]",–
c1coc(-c2ccnc3nc(-n4cccc4)nn23)c1,"inconclusive [inhibitor, partial curve, poor fit]",–
O=C1Nc2ccccc2C1=Nc1ccc(-c2nnc3n2CCCCC3)cc1,"inconclusive [inhibitor, full curve, poor fit]",–
COC(=O)CCCc1nc2ccccc2s1,–,inactive: -13.3%
CCC(C)n1c(O)c(C(c2ccccn2)c2c(O)n(C(C)CC)c(=S)[nH]c2=O)c(=O)[nH]c1=S (stereo not given),–,inactive: -9.16%
C=CCn1cnc2scc(-c3ccc(C)cc3)c2c1=O,"inconclusive [inhibitor, full curve, poor fit]",–
O=c1ccc2c(o1)/C(=C/C=C(Cl)Cl)CCC2,–,inactive: 9.88%

Structure (SMILES),Potency,"activity change, negative = inhibition"
Cc1cc2c(s1)c1c(n2C)C(=O)N(Cc2ccccc2F)C1,"inconclusive [inhibitor, full curve, poor fit]",–
COc1ccc(Cl)cc1S(=O)(=O)NC(C)C(=O)NCc1cccnc1 (stereo not given),–,inactive: -7.33%
CC(C)NC(=O)/C(=C/c1ccco1)c1ccccc1,–,inactive: -9.17%
Cc1ccccc1N(C(=O)Cc1cccs1)C(C(=O)NCC1CCCO1)c1cccnc1 (stereo not given),"inconclusive [inhibitor, partial curve, poor fit]",–
CCOc1ccc(C2Oc3nc(SC)nnc3-c3ccccc3N2C(C)=O)cc1OC (stereo not given),"inconclusive [inhibitor, full curve, poor fit]",–
CCOC(=O)Cn1c(=O)oc2cc(S(=O)(=O)NCCC(C)C)ccc21,–,inactive: -11.6%
N#C/C(=C\c1cccc([N+](=O)[O-])c1)c1nnc2n1CCCCC2,"inconclusive [inhibitor, partial curve, poor fit]",–
CC(C)(C)c1ccc(OCC(O)CN2CCCC2)cc1 (stereo not given),"inconclusive [inhibitor, single point]",–
COc1ccc(OCCN(C)CC(=O)Nc2c(C)cccc2C)cc1,–,inactive: -0.402%
O=C(C[n+]1cccc2ccccc21)c1ccc(Br)cc1,"inconclusive [inhibitor, full curve, poor fit]",–
O=C(COc1ccccc1)OCc1csc(Nc2ccccc2)n1,"inconclusive [inhibitor, partial curve]",–
Cn1c(CCC(=O)Nc2ccccc2F)nnc1SCC(=O)Nc1ccccc1Cl,"inconclusive [inhibitor, single point]",–
O=C(CCCOc1ccccc1)Nc1ccncc1,"inconclusive [inhibitor, single point]",–
CCOC(=O)N1CCN(C(=O)CSCC(=O)Nc2nc(-c3ccc(-c4ccccc4)cc3)cs2)CC1,"inconclusive [inhibitor, full curve, poor fit]",–
CN(C(=O)COc1cc(=O)n(C)c2ccccc12)c1cccc(Cl)c1,"inconclusive [inhibitor, full curve, poor fit]",–
O=C(NCC(c1ccco1)N1CCc2ccccc2C1)c1ccc(Cl)cc1 (stereo not given),"inconclusive [inhibitor, full curve, poor fit]",–
COc1cccc(CN(C(=O)c2ccco2)C(C(=O)NC2CCCC2)c2cccnc2)c1 (stereo not given),"inconclusive [inhibitor, full curve]",–
CCc1cc2c(=O)n(Cc3ccco3)c(SCc3c(C)noc3C)nc2s1,"inconclusive [inhibitor, full curve, poor fit]",–
Cc1cc(C)cc(Nc2ccc([N+](=O)[O-])nc2[N+](=O)[O-])c1,–,inactive: 1.49%
CC(C)(C)NC(=O)NC(=O)CN1CCN(c2ccc(O)cc2)CC1,"inconclusive [inhibitor, partial curve]",–
COc1cccc(-c2nc(Oc3cc(C)cc(C)c3)c3ccccc3n2)c1O,"inconclusive [inhibitor, partial curve]",–
O=C(Cc1csc(-c2ccccc2)n1)Nc1ccc(C(F)(F)F)cc1,"inconclusive [inhibitor, full curve, poor fit]",–
